From PubChem BioAssay AID463173 (ICCB-Longwood Screening Facility, Harvard Medical School, 2010) come the findings set out here.

In all, about 52,000 compounds went through this assay and about 4,300 (8.3%) were called active. Rule as the data show it: active = survival mostly below about 52% (no sharp cut-off); inactive = mostly above about 56%. This is one part of the list.

The test system of the test is DeltatarO mutant. In words: S. aureus survival, RN4220 and DeltatarO strains – OD600, teichoic acid synthesis inhibitors, primary screen (AID 463173). To be noted: S. aureus RN4220 wild type/DeltatarO growth, OD600, 18 h, active compounds read low, screened at 18.75 µg/mL (by protocol).
Consider `CSCCC(NS(=O)(=O)c1ccc2c(c1)oc(=O)n2C)C(=O)NCc1ccc(F)cc1` (stereo not drawn), for which the survival is inactive: 108%.
Then `COc1ccc(-n2cc(C(=O)N(C)c3cc(C)ccc3OC)c3ccccc3c2=O)cc1`, with inactive: 109%; and `O=C(Nc1ccccn1)c1cccs1`, with inactive: 109%; and `O=C(O)C1=C(C(=O)Nc2cccc(C(F)(F)F)c2)CCCC1`, with inactive: 74%.
As to `COc1ccccc1NC(=O)C1=C(C)Nc2nc(SCC(=O)c3ccc(C)cc3)nn2C1c1ccccc1C` (stereo not drawn), the survival was inactive: 71%.
Then `CCOc1ccc(NS(=O)(=O)c2ccc3[nH]cc(C(=O)NCCOC)c(=O)c3c2)cc1`, with inactive: 72%; and `CN(C)CCNC(=O)CCCn1c(=O)c2cccn2c2ccccc21`, with inactive: 64%; and `CC(=O)Nc1ccc(NS(=O)(=O)c2cc(Br)cc3c2N(C(=O)C2CC2)CC3)cc1`, with inactive: 74%.
Next, `COc1cc(OC)c(NC(=O)c2cc(C(C)=O)n3ccccc23)cc1Cl`: inactive: 85%; `O=C1/C(=C/C2=Cc3ccccc3OC2)SC(=S)N1C1CCS(=O)(=O)C1` (stereo not drawn): active: 44%.
Then `COc1ccc(C)cc1NS(=O)(=O)c1c(C)nc2sc(C)cn2c1=O`, with inactive: 121%; and `CCOc1ccccc1NC(=O)CSc1ccc2nnc(CCNS(=O)(=O)c3ccccc3)n2n1`, with inactive: 50%; and `COCCNC(=O)CCCn1c(=O)[nH]c2ccsc2c1=O`, with inactive: 79%.
With `Brc1ccc(-c2noc(-c3ccccc3)n2)o1`, the survival is inactive: 75%.
Next, `Clc1cccc(Cl)c1COc1ccccn1`: inactive: 60%; `CN1C(C(=O)c2ccccc2)=C(NC(=O)c2ccc(F)cc2)c2ccccc2S1(=O)=O`: inactive: 96%; `CCOc1ccc(-c2cc(C(=O)NC(C)c3ccccc3)c3ccccc3n2)cc1` (stereo not drawn): inactive: 80%.
Consider `COc1ccc(COC(=O)C2=C(C)NC(=O)CC2c2cccc(Cl)c2Cl)cc1` (stereo not drawn), for which the survival is inactive: 85%.
Next, `O=C(Nc1ccc(C(=O)N2CCN(c3ccccc3F)CC2)cc1)c1nsc2ccccc12`: inactive: 79%; `CCOCCCNc1nc2c(S(=O)(=O)c3ccc(CC)cc3)nnn2c2ccc(Cl)cc12`: inactive: 78%; `O=C(Cn1ncc2c3ccccc3n(Cc3cccc(Cl)c3)c2c1=O)NCCCN1CCCCC1`: inactive: 113%.
As for `Cc1ccccc1NC(=O)C(C)Sc1nnc(-c2ccccc2O)o1` (stereo not drawn), the survival was inactive: 69%.
Next, `Cc1ccc(CNC(=O)Cn2c(=O)cc(C)c3c(C)nn(-c4cccc(F)c4)c32)cc1`: inactive: 68%.
Then `Cc1ccc(C)c(N2CCN(S(=O)(=O)c3ccc(-c4cnc(C5CC5)o4)cc3)CC2)c1`, with inactive: 80%; and `CCc1oc(C(=O)O)cc1COC`, with inactive: 105%; and `CCOc1ccccc1CN1CCc2nc(N3CCN(C)CC3)ncc2C1`, with active: -2%.
Then `Cc1ccc(NC(=O)CSc2nc(-c3cccs3)nc3cc(=O)[nH]n23)cc1C`, with inactive: 67%; and `COc1ccc(-c2cn3cccnc3n2)cc1NC(=O)Nc1cc(C)ccc1C`, with inactive: 63%; and `O=C(NCCc1ccccc1)C1CCN(Cc2cc3ccccc3n2Cc2ccccc2)CC1`, with inactive: 79%.
Take `CC(=O)C1=C(c2ccc(F)cc2)N(C(C)=O)n2c(nnc2C2CCCCC2)S1`: the survival is inactive: 88%.
Then `Cc1cccc(OCc2nnc(SCC(N)=O)o2)c1`, with inactive: 91%; and `CCOc1ccc(C(=O)NCC(c2ccc(Cl)cc2)N2CCCCC2)cc1` (stereo not drawn), with inactive: 78%.
With `O=C(NCCc1ccc(Cl)cc1)c1ccc2c(c1)nc1n2CCOC1`, the survival was inactive: 76%.
For the compound `CN(C)CCN(Cc1ccco1)C(=O)c1cc2c(s1)-c1ccccc1OC2`, the survival is inactive: 69%.
As for `COc1ccc(-c2onc(C)c2C)cc1S(=O)(=O)Nc1cccc(C#N)c1`, the survival was inactive: 126%.
Then `CCOC(=O)N1CCc2c(sc3c2c(=O)n(-c2ccc(F)cc2)c(=O)n3CC(=O)c2ccc(Cl)cc2)C1`, with inactive: 71%; and `CCc1ccc(NS(=O)(=O)c2ccc(-c3cc(C)no3)cc2)cc1`, with inactive: 102%; and `Cc1cccc(NC(=O)C2CC(=O)NC(Nc3nc4ccccc4s3)=N2)c1` (stereo not drawn), with inactive: 83%.
Turning to `CCNC(=S)N1CCN(C(=O)C(Cc2ccccc2)NC(C)=O)CC1` (stereo not drawn), the survival was inactive: 94%.
Next, `O=C(CN1C(=O)C2(SCC(=O)N2c2cccc(F)c2)c2ccccc21)NCCc1ccccc1` (stereo not drawn): inactive: 68%; `CC(=O)Nc1ccc(NC(=O)Cc2ccccc2)cc1`: inactive: 115%; `O=C(NCCc1csc(-c2cccnc2)n1)c1ccccc1`: inactive: 77%.
Take `Cc1ccccc1C(=O)OCc1cc(=O)n2nc(C3CCCCC3)sc2n1`: the survival is inactive: 83%.
Next, `Cc1nnc2c(N3CCN(c4ccc(F)cc4)CC3)nc3ccc(C(=O)c4ccccc4)cc3n12`: inactive: 144%; `O=C1C2C3c4ccccc4C(c4ccccc43)C2C(=O)N1CCN1CCNCC1` (stereo not drawn): inactive: 76%.
Then `Cc1cc(C)c(NC(=O)C(C)n2c(=O)cc(-c3ccccc3)c3c(C)nn(C)c32)c(C)c1` (stereo not drawn), with inactive: 83%; and `CCCCNc1ccc(-c2nc(-c3ccccn3)no2)cc1[N+](=O)[O-]`, with active: 46%; and `COc1ccc(-c2nnn3c2nc(NCc2ccc(C)cc2)c2ccccc23)cc1`, with inactive: 84%.
Then `CCCNC(=O)CSc1c(CCC)cnc2c1c(=O)n(C)c(=O)n2C`, with inactive: 77%; and `COc1ccc(OC)c(NC(=O)Cn2ccn(-c3ccc(OC)c(OC)c3)c(=O)c2=O)c1`, with inactive: 91%; and `O=C(N1CCOCC1)N1CCC(c2ccc(F)cc2)CC1`, with inactive: 95%.
Consider `CCc1ccc(NC(=O)Nc2ccccc2OCc2cc(=O)n3ccccc3n2)cc1`, for which the survival was inactive: 65%.
Then `CCOC(=O)c1cc(-c2ccc(OC)c(S(=O)(=O)NCc3ccccc3Cl)c2)on1`, with inactive: 88%; and `CC1CCCCN1CCCNC(=O)CN1C(=O)CSc2ccc(S(=O)(=O)N3CCOCC3)cc21` (stereo not drawn), with inactive: 101%.
Then `O=C(NCc1ccc(Cl)cc1)C1=Cc2cc(Br)ccc2OC1`, with inactive: 94%; and `CCC(=O)N1CCc2cc(Br)cc(S(=O)(=O)N3CCCC(C(=O)Nc4cc(C)ccc4OC)C3)c21` (stereo not drawn), with inactive: 84%; and `CCOc1ccc(NC(=O)CN2C(=O)C(c3ccc(Cl)cc3)=NC2(C)C)cc1`, with inactive: 85%.
Then `Cc1ccc(Cl)cc1N1CCN(C(=O)c2cc3ccc4cccnc4c3[nH]2)CC1`, with inactive: 131%.
